Results published in PubChem BioAssay AID686978 (National Center for Advancing Translational Sciences (NCATS), 2013).
Values joined by “and” are separate entries in the source; they are usually repeats but may differ in a detail not shown here. Identical values can stand only once. The campaign covered roughly 420,000 compounds. About 64,000 (15%) were called active. The shares of active, inactive and inconclusive entries below differ from those in the screen. The call rests on the fitted dose curve; in most records, active means well fitted inhibition curve with a large enough effect; inconclusive means small, poorly fitted or top-dose-only effect; inactive means flat fitted curve, though single readings scatter. A potency beside an inconclusive call is a rough fit, not a confirmed value.

Experiment: qHTS for Inhibitors of human tyrosyl-DNA phosphodiesterase 1 (TDP1): qHTS in cells in absence of CPT; further: nearly all actives have a fitted effect of over 55% in size
Conditions: DT40 Tdp1-/- hTDP1 cells, no CPT, ATP luminescence, 48 h; activity change, negative = growth inhibition: at 46.2 µM (top of the series)
Outline: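 Cells were dispensed at 400 per well, compounds added by pin tool, plates incubated ≥48 hr at 37 °C, then CellTiter-Glo added for 30 min at room temperature before luminescence reading. Line: DT40 Tdp1-/- complemented with hTDP1; camptothecin omitted.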
On the % scale 0 is the no-effect control and ±100 the full control effect; potency means the concentration at half of the fitted maximal effect; tags describe the fitted curve by direction and shape.

Row | SMILES | Potency | activity change, negative = growth inhibition
1 | CC(C)CN(C(=O)CN1CCN(c2ccccc2F)CC1)c1c(N)n(CC(C)C)c(=O)[nH]c1=O | inactive | 
2 | COc1ccc(S(=O)(=O)N2CCN=C2SCc2cccnc2)cc1 | inconclusive: 32.6 µM [inhibitor, single point] | 
3 | Cc1cc2c3c(c1)C1(C(=O)N3C(C)(C)CC2C)C(C#N)=C(N)OC2=C1C(=O)CC(C)(C)C2 (stereo not given) | inconclusive: 20.6 µM [inhibitor, single point] | 
4 | C[N+](C)(CCCCCC[N+](C)(C)C1c2ccccc2-c2ccccc21)C1c2ccccc2-c2ccccc21 | inconclusive: 21.1 µM [inhibitor, single point] | 
5 | COc1ccccc1CCNC(=O)CNC(=O)Cc1cccc2ccccc12 | inconclusive: 29.1 µM [inhibitor, single point] and inconclusive: 12.6 µM [inhibitor, single point] | 
6 | CCCOC(=O)Cn1cnc2scc(-c3ccc(OC)cc3)c2c1=O | inactive | 
7 | COc1cccc(C2C(C(=O)/C=C/c3ccco3)=C(O)C(=O)N2CCN2CCOCC2)c1 (stereo not given) | inactive | 
8 | COC(=O)CN1C(c2ccccc2O)Nc2ccc(Br)cc2C1c1ccccc1 (stereo not given) | inconclusive: 29.1 µM [inhibitor, single point] | 
9 | O=C(Nc1ccc(S(=O)(=O)N2CCOCC2)cc1)c1ccc(S(=O)(=O)N2CCOCC2)cc1 | inactive | 
10 | COc1ccc(Cn2c(C)nc3oc4cc(OC)ccc4c(=O)c3c2=O)cc1 |  | inconclusive: -33.4% [inhibitor]
11 | COc1ccc(CN(Cc2cccn2C)S(=O)(=O)c2ccc(F)cc2)cc1 | inconclusive: 25.9 µM [inhibitor, single point] | 
12 | COc1ccc(-c2cc(C(=O)Nc3cc(OC)c(OC)c(OC)c3)[nH]n2)c(C)c1 | active: 11.6 µM | 
13 | CN(c1ccccc1)S(=O)(=O)c1cccc(NC(=O)CSc2nnc(C3CC3)n2C)c1 | inactive | 
14 | CCCCN(C)c1c(C)nc2ccc(C(=O)NCc3ccc(OC)cc3)cn12 | active: 13 µM | 
15 | COc1ccc(S(=O)(=O)N2CCC(C(=O)NC3CC3)CC2)cc1OC | inactive | 
16 | O=C(Nc1ccccc1C(F)(F)F)c1nc(S(=O)(=O)Cc2ccccc2F)ncc1Cl | active: 0.708 µM | 
17 | CCCOc1ccc(C(=O)NC2CCSc3ccccc32)cc1 (stereo not given) | inconclusive: 13 µM [inhibitor, partial curve, poor fit] | 
18 | CCCCn1nnnc1C(c1ccccc1)N1CCN(c2ncccc2C(F)(F)F)CC1 (stereo not given) | active: 18.4 µM | 
19 | Cc1nonc1CN(C)C(=O)C1CC12CCN(C(=O)/C=C/c1cccc(Cl)c1)CC2 (stereo not given) | inconclusive: 20.6 µM [inhibitor, single point] | 
20 | Cc1cccnc1NC(=O)c1ccc(Cl)c(S(=O)(=O)N2CCCCCC2)c1 | inconclusive: 0.206 µM [inhibitor, full curve, poor fit] | 
21 | CC(c1ccccc1)C1CC(=O)N(c2ccccc2)C1=O (stereo not given) | inactive | 
22 | Cn1cc(S(=O)(=O)N2CCN(c3cccc(Cl)c3)CC2)c(=O)n(C)c1=O | inactive | 
23 | COc1ccccc1C(=O)N/C(=C\c1cn(C)c2ccccc12)C(=O)NCCCn1ccnc1 | inactive | 

Row | SMILES | Potency | activity change, negative = growth inhibition
24 | O=S(OCCN1CCCC1)C(c1ccccc1)c1ccccc1 (stereo not given) | inconclusive: 20.6 µM [inhibitor, partial curve] | 
25 | O=C(CCCN1C(=O)c2ccccc2C1=O)N1CCN(c2ccccn2)CC1 | inconclusive: 5.8 µM [inhibitor, single point] | 
26 | C/C(=N/NC(=O)CNc1ccc(C)cc1)c1ccc(Br)s1 | active: 18.4 µM | 
27 | Cc1ccc(CN(C(=O)COc2ccccc2[N+](=O)[O-])c2ccccn2)cc1 | inconclusive: 23.1 µM [inhibitor, single point] | 
28 | CCCCCOC(=O)Nc1nc(=O)n([C@@H]2O[C@H](C)[C@@H](O)[C@H]2O)cc1F | inconclusive: 23.7 µM [inhibitor, single point] | 
29 | Cc1cc(NC(=O)CSc2nnc(-c3cccnc3)n2Cc2ccccc2)no1 | inactive | 
30 | COC(=O)c1ccccc1NC(=O)C1CCCCC1C(=O)O (stereo not given) | inactive | 
31 | Cc1ccc(Cn2c(CCNc3nc(-c4ccc(Cl)c([N+](=O)[O-])c4)cs3)nc3cc(C(=O)NCCCO)ccc32)cc1 | active: 13 µM | 
32 | COc1cccc(NC(=S)N2CCC(NC(=O)c3ccco3)CC2)c1 | inactive | 
33 | CCCCC(=O)N(C)c1c(CC)nc2c(OCC(N)=O)cccn12 | inactive | 
34 | COc1ccc(N(CC(=O)NCc2ccco2)S(=O)(=O)c2ccc(C)cc2)cc1 | inconclusive: 0.58 µM [inhibitor, single point] | 
35 | CCOc1cc(/C=C2\NC(=O)NC2=O)ccc1OC(C)C(=O)O (stereo not given) | inconclusive: 25.9 µM [inhibitor, single point] | 
36 | O=C(N/N=C/c1cc([N+](=O)[O-])ccc1O)c1cccc(NC(=O)c2cccc(Cl)c2)c1 | active: 3.26 µM | 
37 | CCC(CC)C(=O)Nc1nnc(S(=O)(=O)N2CCc3ccccc32)s1 |  | inconclusive: -34.2% [inhibitor]
38 | COc1cc(NC(=O)COC(=O)/C=C/c2c(C)nn(C3CCS(=O)(=O)C3)c2Cl)cc(OC)c1OC (stereo not given) |  | inconclusive: -36.4% [inhibitor]
39 | CCOC(=O)C1=CN(Cc2cccc(F)c2)S(=O)(=O)N(CC)C1CCc1ccccc1 (stereo not given) | inconclusive: 18.4 µM [inhibitor, single point] | 
40 | COCCNC(=O)C(c1ccco1)N(C(=O)Cn1nnc2ccccc21)c1cc(C)ccc1C (stereo not given) | inconclusive: 29.1 µM [inhibitor, single point] | 
41 | CC(C)(C)c1ccc(C(=O)c2c[nH]c(C(=O)NCCCN3CCOCC3)c2)cc1 | active: 18.4 µM | 
42 | O=C(NCc1ccccc1Cl)C1CCN(C(=O)N2CCOc3ccccc32)CC1 | inconclusive: 29.1 µM [inhibitor, single point] | 
43 | COc1ccc2cc(/C=C/C(=O)N3CCN(CC(=O)N4CCCCCC4)CC3)ccc2c1 | inconclusive: 16.4 µM [inhibitor, single point] | 
44 | CS(=O)(=O)c1ccc2nc(NC(=O)CC3CCCC3)sc2c1 | active: 13 µM | 
45 | Cc1cccc(OCC(=O)NCCc2nc3ccccc3[nH]2)c1C | inconclusive: 18.4 µM [inhibitor, single point] | 
